Assay results reported in PubChem BioAssay AID624417 (National Center for Advancing Translational Sciences (NCATS), 2012).
About 6,400 (1.6%) of roughly 410,000 compounds were called active. The inconclusive results got no clear call from the source; some entries with a clear call stand among them for comparison. The call rests on the fitted dose curve; in most records, active means well fitted inhibition curve with a large enough effect; inconclusive means small, poorly fitted or top-dose-only effect; inactive means no such curve, though single readings can be large or run the other way. A potency beside an inconclusive call is a rough fit, not a confirmed value.

What follows are compounds tested against Glucagon-like peptide 1 receptor (Homo sapiens) (UniProt P43220) (assay: qHTS of GLP-1 Receptor Inverse Agonists (Inhibition Mode)). Details: HEK293 GLP-1R CRE-luciferase, luminescence, 24 h, GLP-1R form is constitutively active; activity change, negative = inhibition: at 38.3 µM (top of the series) unless noted.
Chain of UniProt P43220 (P43220 whole entry, looked up): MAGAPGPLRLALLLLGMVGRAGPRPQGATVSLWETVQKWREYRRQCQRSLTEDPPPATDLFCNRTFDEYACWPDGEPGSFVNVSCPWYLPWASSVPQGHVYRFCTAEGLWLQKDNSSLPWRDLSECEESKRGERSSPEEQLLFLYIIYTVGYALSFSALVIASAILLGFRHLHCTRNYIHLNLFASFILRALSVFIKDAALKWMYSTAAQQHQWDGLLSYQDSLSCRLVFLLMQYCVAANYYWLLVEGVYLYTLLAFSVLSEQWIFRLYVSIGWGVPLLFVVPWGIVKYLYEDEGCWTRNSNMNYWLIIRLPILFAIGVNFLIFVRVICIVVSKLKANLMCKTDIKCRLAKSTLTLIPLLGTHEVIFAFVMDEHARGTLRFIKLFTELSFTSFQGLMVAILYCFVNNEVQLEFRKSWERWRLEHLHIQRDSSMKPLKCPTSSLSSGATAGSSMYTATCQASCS
Outline: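 Stable HEK293 clone (constitutively active GLP-1R + cAMP-response luciferase); 200 cells/uL plated, 12 h pre-culture, compound 24 hr, 37 deg C/5% CO2; detection reagent 12 min RT; luminescence.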
Further: nearly all actives have a fitted effect of over 55% in size.
On the % scale 0 is the no-effect control and ±100 the full control effect; potency means the concentration at half of the fitted maximal effect; tags describe the fitted curve by direction and shape.

Potency, inconclusive:
COc1ccccc1C(=O)NC(=O)COC(=O)CNC(=O)c1ccc(Cl)c([N+](=O)[O-])c1 28.2 µM [inhibitor, single point], FC(F)Oc1ccccc1/C=N/n1cnc2ccccc21 28.2 µM [inhibitor, single point], CC(C)Cc1nnc(NC(=O)CC(=O)Nc2ccccc2C(=O)O)s1 28.2 µM [inhibitor, single point], CCOc1cc(C(=S)N2CCOCC2)ccc1OS(=O)(=O)c1ccc(C)cc1 12.6 µM [inhibitor, partial curve], Cc1ccc(/C=C(\NC(=O)c2ccccc2)C(=O)OCc2ccccc2)cc1 3.98 µM [inhibitor, partial curve], COc1ccc(NC(=O)c2cccc(OC(F)F)c2)cc1Cl 28.2 µM [inhibitor, single point], Cc1cc(NC(=O)c2c(-c3c(F)cccc3Cl)noc2C)no1 11.2 µM [inhibitor, single point], CCCNC(=O)c1ccccc1NC(=O)c1ccc(CSc2ccccc2)cc1 28.2 µM [inhibitor, single point], COc1cccc(NC(=O)CN2C(=O)NC(c3ccccc3)(c3ccccc3)C2=O)c1 12.6 µM [inhibitor, single point], CCn1c(C(=O)NCc2ccccc2)cc2sc(Cl)cc21 28.2 µM [inhibitor, single point], Cc1ccc(CNC(=O)c2ccc(CSCc3c(F)cccc3Cl)o2)cc1 28.2 µM [inhibitor, single point], Nn1c(SCC(=O)NCC2CCCO2)nnc1-c1ccc(OC(F)F)cc1 (stereo not drawn) 31.6 µM [inhibitor, single point], CCc1nccn1CCC(=O)N1CCc2c([nH]c3ccccc23)C1CC(C)C (stereo not drawn) 12.6 µM [inhibitor, single point], CCOC(=O)n1c(=O)n(Cc2ccc(Cl)cc2Cl)c2ccccc21 15.8 µM [inhibitor, partial curve, poor fit], Cc1cccc(C2c3[nH]c4ccccc4c3CCN2C(=O)c2cc(CC(C)C)[nH]c(=O)n2)n1 (stereo not drawn) 10 µM [inhibitor, partial curve, poor fit], O=[N+]([O-])c1cc(S(=O)(=O)Oc2ccccc2)ccc1Cl 10 µM [inhibitor, partial curve, poor fit], COc1ccnc(CSC(N)=Nc2ccccc2OC)c1 11.2 µM [inhibitor, single point], O=C(NCc1ccc(F)cc1Cl)c1ccc(CSCc2ccccc2Cl)o1 11.2 µM [inhibitor, single point], CCSc1nnc(CNC(=O)C23CC4CC(CC(C4)C2)C3)n1Cc1ccccc1 8.91 µM [inhibitor, partial curve, poor fit], O=C(OCc1ccc([N+](=O)[O-])cc1)c1cc([N+](=O)[O-])ccc1N1CCOCC1 10 µM [inhibitor, partial curve], Cc1ccc(NC(=O)/C=C/c2cccc(C(F)(F)F)c2)cc1 3.16 µM [inhibitor, full curve, poor fit], O=C1CSC(=S)N1Cc1ccccc1 5.62 µM [inhibitor, full curve], Cc1ccc(C(=O)NC(=S)Nc2cccc(NC(=O)c3ccccc3)c2)cc1[N+](=O)[O-] 12.6 µM [inhibitor, partial curve, poor fit], CC(C)Cc1ccc(C(C)C(=O)Nc2ccccc2O)cc1 (stereo not drawn) 7.94 µM [inhibitor, partial curve, poor fit], Cc1ccc(CNC(=O)CCCc2ccccc2)cc1 10 µM [inhibitor, single point], CC1CCc2sc3nc(N4CCN(CCO)CC4)n4ncnc4c3c2C1 (stereo not drawn) 28.2 µM [inhibitor, single point], C=CCN(c1ccccc1OC)S(=O)(=O)c1cccc(C(=O)OCC(=O)c2c(N)n(C)c(=O)n(C)c2=O)c1 28.2 µM [inhibitor, single point], O=C(OCC(=O)N1CCN(c2ccccc2)CC1)c1ccccc1[N+](=O)[O-] 28.2 µM [inhibitor, single point], C=C[C@@](C)(O)CC[C@@H]1[C@@]2(C)CCCC(C)(C)[C@@H]2CC[C@@]1(C)O 12.6 µM [inhibitor, single point], CC(C(=O)NC(=O)NC1CCCCC1)N1CCN(c2ccccn2)CC1 (stereo not drawn) 8.91 µM [inhibitor, partial curve, poor fit], CCCNC(=O)C1(C)CCCN(Cc2ccc(C(F)(F)F)cc2)C1 (stereo not drawn) 12.6 µM [inhibitor, partial curve, poor fit], COc1ccc(-c2sc3ccc(N4CCOCC4)cc3c2-c2ccc(O)cc2)cc1 3.55 µM [inhibitor, partial curve, poor fit], COc1ccc(C)cc1NC(=O)c1ccccc1N(C)S(=O)(=O)c1ccccc1 11.2 µM [inhibitor, partial curve, poor fit], Cc1ccc(Nc2nc(N)nc(CCl)n2)cc1 11.2 µM [inhibitor, single point], Cc1c(NC(=O)C(C)c2ccc(CC(C)C)cc2)c(=O)n(-c2ccccc2)n1C (stereo not drawn) 10 µM [inhibitor, partial curve, poor fit], N#C/C(=N\Nc1ccc(S(=O)(=O)N2CCc3ccccc32)cc1)C(N)=S 14.1 µM [inhibitor, partial curve, poor fit], Clc1c(Cl)c(Cl)c2n[nH]nc2c1Cl 28.2 µM [inhibitor, single point], O=S(=O)(Nc1ccc(F)cc1)N1CCCCCC1 20 µM [inhibitor, single point], O=C(CN1CCN(Cc2ccccc2Cl)CC1)N/N=C/C=C/c1ccccc1[N+](=O)[O-] 17.8 µM [inhibitor, partial curve, poor fit], O=C(COC(=O)c1ccc2[nH]c3c(c2c1)CCCC3)Nc1ccccc1 7.94 µM [inhibitor, partial curve], O=C(c1cc2ccccc2o1)N1CCN(CCOc2ccccc2)CC1 10 µM [inhibitor, single point], O=C(O)CCSc1nnc(-c2ccc(Cl)cc2Cl)o1 15.8 µM [inhibitor, single point], COc1ccc(CN(C2CCCC2)S(=O)(=O)c2ccc(-n3cnnn3)cc2)cc1 12.6 µM [inhibitor, single point], CC(C)C1C(=O)N(Cc2cn(CCC3OCCO3)nn2)CCS(=O)(=O)N1Cc1ccc(-c2cccc(N(C)C)c2)cc1 (stereo not drawn) 10 µM [inhibitor, single point], CCCCC[C@@H](C)N1C[C@@H](COCc2ccccc2)Oc2cc(N3CC[C@H](N(C)C)C3)ccc2S1(=O)=O 14.1 µM [inhibitor, partial curve, poor fit], CCCCC1C(=O)N(c2ccccc2)N(c2ccc(O)cc2)C1=O (stereo not drawn) 12.6 µM [inhibitor, single point]

Potency, active:
Cc1ccc(-n2nnnc2SCCNS(=O)(=O)c2ccccc2)cc1C 11.2 µM, CCC(C)(c1nnnn1-c1c(C)cccc1C)N(N=O)c1ccccc1Cl (stereo not drawn) 7.94 µM, CC1(C)CC(=O)c2cc(C(=O)NNc3ccccc3)c(=O)n(-c3ccccc3)c2C1 1 µM, O=C(Nc1ccc(Cl)c(S(=O)(=O)N2CCOCC2)c1)c1ccc2c(c1)OCO2 11.2 µM, CCn1c(SCC(=O)Nc2nc(-c3ccccc3)cs2)nnc1-c1ccccc1 10 µM

Activity change, negative = inhibition, inactive:
CCOc1ccc(/C=C/c2nc(C#N)c(N3CCCCCC3)o2)cc1 -7.74%, CN(C(=O)c1cccs1)c1ccccc1C(=O)O -4.24%, CCOC(=O)c1sc(NC(=O)C2CC2)cc1C -16.9%, CCOc1ccccc1NC(=O)c1cn(C2CCCCC2)c(=O)c2c1c1ccccc1n2C 0.276%, COc1cccc(C2CC(c3ccccc3Cl)Nc3ncnn32)c1 (stereo not drawn) 40.3%, CCCCOCC(O)CCc1n[nH]c(=S)n1-c1ccccc1 (stereo not drawn) 14.4%, Cc1ccc(-c2cn3c(n2)sc2cc(C(=O)NC4CCCCC4)ccc23)cc1 -2.62%, Cc1nc2ccc(C(=O)Nc3ccccc3Cl)cc2s1 2.06%, CCOC(=O)c1sc(NC(=O)CSc2nnc(Cc3ccccc3)o2)c(C#N)c1C 15.7%, O=C(OCc1csc(-c2ccccc2)n1)c1ccc(O)cc1 66.5%, CCOC(=O)C1=C(CN2CCCCC2)NC(=O)NC1c1ccc(OC)cc1 (stereo not drawn) 1.78%, Nc1ccc2nc(CCCCc3nc4ccccc4[nH]3)[nH]c2c1 17.6%, O=C(NCCSc1ccccc1)c1cncc(Br)c1 0.72%, CCOc1ccc(CC(=O)NCc2cn3c(C)csc3n2)cc1 43.3%, COc1ccc(-n2c(-c3cccc(OC)c3)nc(=S)c3c2CCCC3)cc1 -6.12%, c1ccc2c(c1)nnn2-c1ccncc1 6.01%, CC1(C)O[C@H]2[C@@H](O1)[C@@H](C(=O)Nc1cc(F)ccc1F)O[C@@H]1OC(C)(C)O[C@@H]12 10.9%
